Results: publication PMC12820563
The other results are listed elsewhere or left out. The list includes weakly bound sequences.

What follows are sequences tested against T1, MBP-FoxP3dN (UniProt Q99JB6) (assay: PD-seq (MBP pull-down with sequencing)). Conditions: 20 mM Tris-HCl pH 7.5, 100 mM NaCl, 1.5 mM MgCl2, 0.4 uM protein, 0.1 uM dsDNA library, 30 min, room temperature, amylose pull-down; high values mean tight binding; double strand, one strand shown.
T1 sequence: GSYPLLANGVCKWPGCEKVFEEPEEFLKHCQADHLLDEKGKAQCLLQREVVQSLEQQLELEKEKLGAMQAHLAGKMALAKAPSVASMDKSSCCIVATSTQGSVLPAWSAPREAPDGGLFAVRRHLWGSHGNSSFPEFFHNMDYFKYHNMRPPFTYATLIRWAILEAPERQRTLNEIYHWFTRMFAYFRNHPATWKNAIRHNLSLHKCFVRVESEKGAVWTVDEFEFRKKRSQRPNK

Row | Sequence | binding signal (RPM ratio (pull-down/input))
1 | GATGATTGTTCTCCCAGCTGATGAATTGGGATTCTCGAGTAAACAAATTTTCCTAATCTTTCTGTTCAAGCGCCATCTAC | 0.579
2 | GATGATTGTTCTCCCAGCTGATGAATTGGTCTTGTCGAGTAAACAAATTTTCCTAATCTTTCTGTTCAAGCGCCATCTAC | 0.435
3 | GATGATTGTTCTCCCAGCTGATGAATTGGAAGGCTCGAGTAAACAAATTTTCCTAATCTTTCTGTTCAAGCGCCATCTAC | 0.242
4 | GATGATTGTTCTCCCAGCTGATGAATTCGAGGTTTCGAGTAAACAAATTTTCCTAATCTTTCTGTTCAAGCGCCATCTAC | 0.563
5 | GATGATTGTTCTCCCAGCTGATGAATTTAGTCGATCGAGTAAACAAATTTTCCTAATCTTTCTGTTCAAGCGCCATCTAC | 0.436
6 | GATGATTGTTCTCCCAGCTGATGAATTCATCACCTCGAGTAAACAAATTTTCCTAATCTTTCTGTTCAAGCGCCATCTAC | 1.36
7 | GATGATTGTTCTCCCAGCTGATGAATTAACGTTATCGAGTAAACAAATTTTCCTAATCTTTCTGTTCAAGCGCCATCTAC | 0.715
8 | GATGATTGTTCTCCCAGCTGATGAATTAGTACAGTCGAGTAAACAAATTTTCCTAATCTTTCTGTTCAAGCGCCATCTAC | 0.484
9 | GATGATTGTTCTCCCAGCTGATGAATTGTCGCATTCGAGTAAACAAATTTTCCTAATCTTTCTGTTCAAGCGCCATCTAC | 6.14
10 | GATGATTGTTCTCCCAGCTGATGAATTTCAGTCATCGAGTAAACAAATTTTCCTAATCTTTCTGTTCAAGCGCCATCTAC | 0.551
11 | GATGATTGTTCTCCCAGCTGATGAATTAGAAGTGTCGAGTAAACAAATTTTCCTAATCTTTCTGTTCAAGCGCCATCTAC | 0.403
12 | GATGATTGTTCTCCCAGCTGATGAATTGAACCTGTCGAGTAAACAAATTTTCCTAATCTTTCTGTTCAAGCGCCATCTAC | 0.327
13 | GATGATTGTTCTCCCAGCTGATGAATTATGAGCGTCGAGTAAACAAATTTTCCTAATCTTTCTGTTCAAGCGCCATCTAC | 0.726
14 | GATGATTGTTCTCCCAGCTGATGAATTCGACATTTCGAGTAAACAAATTTTCCTAATCTTTCTGTTCAAGCGCCATCTAC | 0.818
15 | GATGATTGTTCTCCCAGCTGATGAATTTGGGCTTTCGAGTAAACAAATTTTCCTAATCTTTCTGTTCAAGCGCCATCTAC | 1.02
16 | GATGATTGTTCTCCCAGCTGATGAATTGTATTCATCGAGTAAACAAATTTTCCTAATCTTTCTGTTCAAGCGCCATCTAC | 2.02
17 | GATGATTGTTCTCCCAGCTGATGAATTTTATTCTTCGAGTAAACAAATTTTCCTAATCTTTCTGTTCAAGCGCCATCTAC | 0.491
18 | GATGATTGTTCTCCCAGCTGATGAATTAAGTGCATCGAGTAAACAAATTTTCCTAATCTTTCTGTTCAAGCGCCATCTAC | 1.71
19 | GATGATTGTTCTCCCAGCTGATGAATTAAGCTCTTCGAGTAAACAAATTTTCCTAATCTTTCTGTTCAAGCGCCATCTAC | 0.47
20 | GATGATTGTTCTCCCAGCTGATGAATTCTCCGTGTCGAGTAAACAAATTTTCCTAATCTTTCTGTTCAAGCGCCATCTAC | 0.267
21 | GATGATTGTTCTCCCAGCTGATGAATTGTCAAGGTCGAGTAAACAAATTTTCCTAATCTTTCTGTTCAAGCGCCATCTAC | 0.251

Row | Sequence | binding signal (RPM ratio (pull-down/input))
22 | GATGATTGTTCTCCCAGCTGATGAATTGTGCGCCTCGAGTAAACAAATTTTCCTAATCTTTCTGTTCAAGCGCCATCTAC | 2.92
23 | GATGATTGTTCTCCCAGCTGATGAATTACCTCAGTCGAGTAAACAAATTTTCCTAATCTTTCTGTTCAAGCGCCATCTAC | 0.231
24 | GATGATTGTTCTCCCAGCTGATGAATTGCTGTGCTCGAGTAAACAAATTTTCCTAATCTTTCTGTTCAAGCGCCATCTAC | 0.947
25 | GATGATTGTTCTCCCAGCTGATGAATTCTATTTTTCGAGTAAACAAATTTTCCTAATCTTTCTGTTCAAGCGCCATCTAC | 3.5
26 | GATGATTGTTCTCCCAGCTGATGAATTAACGTACTCGAGTAAACAAATTTTCCTAATCTTTCTGTTCAAGCGCCATCTAC | 0.434
27 | GATGATTGTTCTCCCAGCTGATGAATTCGATCTTTCGAGTAAACAAATTTTCCTAATCTTTCTGTTCAAGCGCCATCTAC | 0.315
28 | GATGATTGTTCTCCCAGCTGATGAATTTCGCCACTCGAGTAAACAAATTTTCCTAATCTTTCTGTTCAAGCGCCATCTAC | 5.74
29 | GATGATTGTTCTCCCAGCTGATGAATTGCACTTGTCGAGTAAACAAATTTTCCTAATCTTTCTGTTCAAGCGCCATCTAC | 1.28
30 | GATGATTGTTCTCCCAGCTGATGAATTTTCACGATCGAGTAAACAAATTTTCCTAATCTTTCTGTTCAAGCGCCATCTAC | 0.215
31 | GATGATTGTTCTCCCAGCTGATGAATTTGTAATCTCGAGTAAACAAATTTTCCTAATCTTTCTGTTCAAGCGCCATCTAC | 3.82
32 | GATGATTGTTCTCCCAGCTGATGAATTTATGGGGTCGAGTAAACAAATTTTCCTAATCTTTCTGTTCAAGCGCCATCTAC | 1.33
33 | GATGATTGTTCTCCCAGCTGATGAATTGGTTGAATCGAGTAAACAAATTTTCCTAATCTTTCTGTTCAAGCGCCATCTAC | 0.407
34 | GATGATTGTTCTCCCAGCTGATGAATTCTACAACTCGAGTAAACAAATTTTCCTAATCTTTCTGTTCAAGCGCCATCTAC | 0.303
35 | GATGATTGTTCTCCCAGCTGATGAATTCGGTCGTTCGAGTAAACAAATTTTCCTAATCTTTCTGTTCAAGCGCCATCTAC | 0.509
36 | GATGATTGTTCTCCCAGCTGATGAATTGGCGATCTCGAGTAAACAAATTTTCCTAATCTTTCTGTTCAAGCGCCATCTAC | 0.465
37 | GATGATTGTTCTCCCAGCTGATGAATTTCCCAGTTCGAGTAAACAAATTTTCCTAATCTTTCTGTTCAAGCGCCATCTAC | 0.22
38 | GATGATTGTTCTCCCAGCTGATGAATTCCCAGCATCGAGTAAACAAATTTTCCTAATCTTTCTGTTCAAGCGCCATCTAC | 0.658
39 | GATGATTGTTCTCCCAGCTGATGAATTAACAGATTCGAGTAAACAAATTTTCCTAATCTTTCTGTTCAAGCGCCATCTAC | 0.282
40 | GATGATTGTTCTCCCAGCTGATGAATTATTCCCCTCGAGTAAACAAATTTTCCTAATCTTTCTGTTCAAGCGCCATCTAC | 0.293
41 | GATGATTGTTCTCCCAGCTGATGAATTCACCCAGTCGAGTAAACAAATTTTCCTAATCTTTCTGTTCAAGCGCCATCTAC | 0.2
42 | GATGATTGTTCTCCCAGCTGATGAATTTCTAACCTCGAGTAAACAAATTTTCCTAATCTTTCTGTTCAAGCGCCATCTAC | 0.233

Row | Sequence | binding signal (RPM ratio (pull-down/input))
43 | GATGATTGTTCTCCCAGCTGATGAATTAGGATCGTCGAGTAAACAAATTTTCCTAATCTTTCTGTTCAAGCGCCATCTAC | 0.31
44 | GATGATTGTTCTCCCAGCTGATGAATTTGTCGGATCGAGTAAACAAATTTTCCTAATCTTTCTGTTCAAGCGCCATCTAC | 1.05
45 | GATGATTGTTCTCCCAGCTGATGAATTCTCACTCTCGAGTAAACAAATTTTCCTAATCTTTCTGTTCAAGCGCCATCTAC | 0.295
46 | GATGATTGTTCTCCCAGCTGATGAATTTCGTTGCTCGAGTAAACAAATTTTCCTAATCTTTCTGTTCAAGCGCCATCTAC | 1.19
47 | GATGATTGTTCTCCCAGCTGATGAATTGTCGACCTCGAGTAAACAAATTTTCCTAATCTTTCTGTTCAAGCGCCATCTAC | 0.355
48 | GATGATTGTTCTCCCAGCTGATGAATTCGGGAGATCGAGTAAACAAATTTTCCTAATCTTTCTGTTCAAGCGCCATCTAC | 0.252
49 | GATGATTGTTCTCCCAGCTGATGAATTTTGTCTATCGAGTAAACAAATTTTCCTAATCTTTCTGTTCAAGCGCCATCTAC | 4.99
50 | GATGATTGTTCTCCCAGCTGATGAATTCTGGGAGTCGAGTAAACAAATTTTCCTAATCTTTCTGTTCAAGCGCCATCTAC | 0.24
51 | GATGATTGTTCTCCCAGCTGATGAATTTACGCCATCGAGTAAACAAATTTTCCTAATCTTTCTGTTCAAGCGCCATCTAC | 2.38
52 | GATGATTGTTCTCCCAGCTGATGAATTTGAATTTTCGAGTAAACAAATTTTCCTAATCTTTCTGTTCAAGCGCCATCTAC | 0.538
53 | GATGATTGTTCTCCCAGCTGATGAATTTATAGGATCGAGTAAACAAATTTTCCTAATCTTTCTGTTCAAGCGCCATCTAC | 0.414
54 | GATGATTGTTCTCCCAGCTGATGAATTATATAGCTCGAGTAAACAAATTTTCCTAATCTTTCTGTTCAAGCGCCATCTAC | 0.511
55 | GATGATTGTTCTCCCAGCTGATGAATTTAGATCCTCGAGTAAACAAATTTTCCTAATCTTTCTGTTCAAGCGCCATCTAC | 0.531
56 | GATGATTGTTCTCCCAGCTGATGAATTGGCGTCTTCGAGTAAACAAATTTTCCTAATCTTTCTGTTCAAGCGCCATCTAC | 1.06
57 | GATGATTGTTCTCCCAGCTGATGAATTCCTTCATTCGAGTAAACAAATTTTCCTAATCTTTCTGTTCAAGCGCCATCTAC | 0.281
58 | GATGATTGTTCTCCCAGCTGATGAATTGTCCTGGTCGAGTAAACAAATTTTCCTAATCTTTCTGTTCAAGCGCCATCTAC | 0.267
59 | GATGATTGTTCTCCCAGCTGATGAATTTCTTATTTCGAGTAAACAAATTTTCCTAATCTTTCTGTTCAAGCGCCATCTAC | 0.878
60 | GATGATTGTTCTCCCAGCTGATGAATTCCCTGAATCGAGTAAACAAATTTTCCTAATCTTTCTGTTCAAGCGCCATCTAC | 0.178
61 | GATGATTGTTCTCCCAGCTGATGAATTAGCCGTATCGAGTAAACAAATTTTCCTAATCTTTCTGTTCAAGCGCCATCTAC | 0.49
62 | GATGATTGTTCTCCCAGCTGATGAATTATTGTGCTCGAGTAAACAAATTTTCCTAATCTTTCTGTTCAAGCGCCATCTAC | 1.46
63 | GATGATTGTTCTCCCAGCTGATGAATTTCACTCTTCGAGTAAACAAATTTTCCTAATCTTTCTGTTCAAGCGCCATCTAC | 0.407
